Measured values reported in PubChem BioAssay AID2546 (National Center for Advancing Translational Sciences (NCATS), 2010).
In all, about 310,000 compounds went through this assay and about 11,000 (3.5%) were called active. The inconclusive results got no clear call from the source; some entries with a clear call stand among them for comparison. Calls come from the whole dose curve; as a rule, active = well fitted inhibition curve with a large enough effect; inconclusive = small, poorly fitted or top-dose-only effect, or effect the other way; inactive = flat fitted curve, though single readings scatter. Potencies of inconclusive entries are left out as doubtful fits.

Experiment: VP16 counterscreen qHTS for inhibitors of ROR gamma transcriptional activity;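 note: Gal4-VP16 expression switched on by copper sulfate through the metallothionein promoter; nearly all actives have a fitted effect of over 50% in size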
Settings: Drosophila S2 Gal4-VP16 UAS-luciferase, luminescence, 20 h; activity, negative = inhibition: at 53.6 µM (top of the series)
% is set by controls: 0 for no effect and ±100 for the full control effect; potency is the fitted concentration of half-maximal effect; tags give direction and shape of the fitted curve.

| Compound | Potency | activity, negative = inhibition |
| --- | --- | --- |
| CC(C)CN(C(=O)COC(=O)c1ccc([N+](=O)[O-])o1)C1CCS(=O)(=O)C1 (centres undefined) | inconclusive [inhibitor, single point] | – |
| CCN(CC)S(=O)(=O)c1cccc(NC(=O)c2ccccc2Br)c1 | – | inactive: -14.5% |
| CCOC(=O)c1ccc(-c2ccc(C=O)o2)cc1 | inconclusive [inhibitor, single point] | – |
| CCCN(CC(=O)Nc1cccc(Br)c1)CC(=O)Nc1ccc(F)c(F)c1F | inconclusive [inhibitor, partial curve] | – |
| Cc1ccc(-n2c(Cc3ccccc3)n[nH]c2=S)cc1 | active: 10 µM | – |
| CCCn1c(N)c(C(=O)CSc2nc3ccccc3c(=O)n2Cc2ccccc2)c(=O)[nH]c1=O | inconclusive [inhibitor, single point] | – |
| Cc1cc(C(=O)N/N=C/c2ccc([N+](=O)[O-])cc2)c2ccccc2n1 | – | inactive: -2.01% |
| O=C(N/N=C/c1cn(-c2ccccc2)nc1-c1cc2ccccc2o1)c1cccnc1 | active: 1.41 µM | – |
| CCCOc1ccc(C(=O)NNC(=S)NC(=O)c2cc(-c3ccc(Cl)cc3)nc3ccccc23)cc1 | inconclusive [inhibitor, full curve] | – |
| COc1ccc(Sc2nc(-c3ccccn3)ncc2OC)cc1 | active: 8.91 µM | – |
| O=C(O)c1ccccc1C(=O)NCc1ccc2c(c1)OCO2 | – | inactive: -11.8% |
| CC(/C=N/NC(=O)c1cc(-c2ccc(Cl)cc2)nc2ccccc12)=C\c1ccco1 | – | inactive: 2.33% |
| O=C(NC1CCSc2ccccc21)c1ccc(C(F)(F)F)cc1 (centres undefined) | inconclusive [inhibitor, full curve, poor fit] | – |
| Cn1c2ccccc2c2cc(/C=N/NC(=O)c3ccc(O)cc3O)ccc21 | inconclusive [inhibitor, single point] | – |
| O=C(Sc1cccc2cccnc12)c1ccccc1Br | active: 2 µM | – |
| CCN(CC1CCCN(CCc2cccc(F)c2)C1)C(=O)c1cc(C)oc1C (centres undefined) | – | inactive: 6.73% |
| O=C(NC(=S)Nc1ccc(NC(=O)c2cccs2)cc1)c1cc2ccccc2o1 | active: 7.94 µM | – |
| Cc1ccc(NNC(N)=S)cc1Cl | active: 5.01 µM | – |
| Cc1nc2cc(Nc3nnc(-c4ccccc4)c4ccccc34)ccc2n1C | active: 6.31 µM | – |
| O=C(NCCCO)c1ccc(CSc2nc3ccccc3[nH]2)cc1 | inconclusive [inhibitor, single point] | – |

| Compound | Potency | activity, negative = inhibition |
| --- | --- | --- |
| CCOC(=O)c1[nH]c2ccc(OC)cc2c1NC(=O)CN1CCN(c2ccccn2)CC1 | – | inactive: 3.25% |
| COc1ccc(/C=N/NC(=O)Cn2c(Cc3ccc(OC)c(OC)c3)nc3ccccc32)cc1 | inconclusive [inhibitor, single point] | – |
| Cc1c(O)ccc(C(=O)CN2CCN(c3ccccc3F)CC2)c1O | – | inactive: -9.64% |
| COC(=O)c1cn[nH]c1NC(=S)Nc1ccc(Cl)c(Cl)c1 | inconclusive [inhibitor, single point] | – |
| O=C1Nc2ccccc2O/C1=C\c1ccccc1 | – | inactive: 1.84% |
| CCOc1ccccc1CN1CCNC(=O)C1CC(=O)N(C)Cc1nonc1C (centres undefined) | – | inactive: -9.96% |
| COCCNS(=O)(=O)c1ccc(C)c(C)c1C | – | inactive: -20.5% |
| Cc1nc2ccccc2n1CCOc1ccc(F)cc1 | inconclusive [inhibitor, single point] | – |
| CCOc1ccc(C(=O)C2CCN(CC(=O)Nc3ccccc3N3CCOCC3)CC2)cc1 | inconclusive [inhibitor, single point] | – |
| COc1ccccc1CNC(=O)C1CCN(S(=O)(=O)c2ccc3nc4c(c(C(=O)O)c3c2)CCCC4)CC1 | – | inactive: -2.81% |
| CC1CCc2ccc(F)cc2N1S(=O)(=O)c1cccs1 (centres undefined) | inconclusive [inhibitor, single point] | – |
| COc1ccc(NC(=S)NC(=O)c2ccc(Br)o2)cc1 | inconclusive [inhibitor, single point] | – |
| CCOC(=O)C1=C(C)N(C)C(=S)NC1c1ccccc1Cl (centres undefined) | inconclusive [inhibitor, single point] | – |
| FC(F)(F)c1cc(NC(=S)Nc2ccc3ccccc3c2)cc(C(F)(F)F)c1 | active: 14.1 µM | – |
| Cc1ccc(S(=O)(=O)NCCNc2ccc([N+](=O)[O-])cc2C(F)(F)F)cc1 | inconclusive [inhibitor, single point] | – |
| CC(C)n1c(-c2ccc(C(C)(C)C)cc2)n[nH]c1=S | active: 10 µM | – |
| O=C(Nc1ccc(N2CCN(C(=O)c3ccccc3)CC2)c(Cl)c1)c1ncn[nH]1 | inconclusive [inhibitor, partial curve] | – |
| COc1ccc2oc(=O)c(C(=O)NC3CCCCCC3)cc2c1 | inconclusive [activator, partial curve] | – |
| CCN(CCNC(=O)C1CCN(S(=O)(=O)CC)CC1)c1ccccc1 | – | inactive: -3.13% |
